Results from PubChem BioAssay AID1832 (Broad Institute, 2009).
The whole screen tested about 300,000 compounds, of which about 1,100 (0.37%) were called active. Inconclusive means that the source gave no clear call. Such entries were picked first, then a sample of the others.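 Rule for the calls: active = inhibition past about -25% in most replicates, and total fluorescence under double the plate's negative control median (limit read from the data); inconclusive = replicates evenly split on the limit, or fluorescence at least double controls; inactive = too little inhibition in most replicates.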

target: Zinc finger protein mex-5 (Caenorhabditis elegans) (UniProt Q9XUB2); test: MEX-5 zinc finger RNA-binding disruptors – biochemical, C. elegans, fluorescence polarization, MLPCN library, primary screen (AID 1832); conditions: MEX-5/FITC-TCR2 RNA binding, at 10 µM, stronger effect = lower value;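 note: 0% = DMSO and -100% = 5 µM competing unlabeled TCR2 RNA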
Sequence of UniProt Q9XUB2 (Q9XUB2 whole entry, looked up): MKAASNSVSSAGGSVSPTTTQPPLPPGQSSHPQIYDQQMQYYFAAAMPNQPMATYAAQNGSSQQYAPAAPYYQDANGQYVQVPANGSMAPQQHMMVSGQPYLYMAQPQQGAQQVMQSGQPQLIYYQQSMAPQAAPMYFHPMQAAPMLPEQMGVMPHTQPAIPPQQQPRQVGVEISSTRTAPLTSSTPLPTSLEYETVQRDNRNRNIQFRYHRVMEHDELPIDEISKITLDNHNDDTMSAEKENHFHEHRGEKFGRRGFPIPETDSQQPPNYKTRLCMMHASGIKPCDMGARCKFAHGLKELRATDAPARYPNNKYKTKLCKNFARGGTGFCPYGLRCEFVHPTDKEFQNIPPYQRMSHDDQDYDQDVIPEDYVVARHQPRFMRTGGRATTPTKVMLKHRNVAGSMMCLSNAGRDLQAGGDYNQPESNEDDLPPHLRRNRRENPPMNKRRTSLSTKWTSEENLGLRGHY

Activity score (negative = inhibition of binding), inactive:
O=C(NC1CCN(Cc2ccccc2)CC1)c1cccc(Br)c1 0.565%
Cc1cc(C=C2C(=O)c3ccccc3C2=O)c(C)n1C -2.77%
Nc1cccc2c1C(=O)N(CC(=O)NC13CC4CC(CC(C4)C1)C3)C2=O -0.0651%
OCCC1CN(CCCc2ccccc2)CCN1Cc1ccccc1 (stereo not given) 0.408%
O=C(CNC(=O)c1ccccc1Br)N/N=C/c1ccc(O)cc1 2.01%
O=C1CC(C(=O)O)S/C(=N\N=C\c2ccc(Br)cc2)N1 (stereo not given) -0.29%
CC(C)CNC(=O)NC(=O)COc1ncnc2sccc12 -1.79%
C=CCN(CC=C)C(=S)Nc1cc(Cl)ccc1OC 1.86%
Cc1nc2cc(N3CCOCC3)c(NC(=O)C3CC3)cc2c(=O)n1Cc1ccccc1 -1.47%
Cc1cccc(-n2c(N)c(C(=O)NCCN3CCOCC3)c3nc4ccccc4nc32)c1 2.1%
CCCCNC(=O)C1c2ccccc2Oc2ccccc21 1.75%
Cc1cc(C(=O)CSc2nn3c(=O)c(C(C)(C)C)nnc3s2)c(C)n1-c1ccc(F)cc1 0.876%
Cc1cc(C(=O)CN2C(=O)NC3(CCCc4sccc43)C2=O)c(C)n1-c1ccc(Cl)cc1 (stereo not given) 2.61%
Cc1ccc(Br)cc1S(=O)(=O)N1CCN(c2ccccc2)CC1 3.55%
COc1ccc(C(=O)NCc2nnc(SCC(=O)N3CCCc4ccccc43)o2)cc1OC 0.303%
N#C/C(=C\c1ccccn1)c1nc2ccccc2s1 6.84%

Activity score (negative = inhibition of binding), inconclusive:
O=C(O)C1Sc2[nH]c(=O)sc2C2c3ccc(O)cc3OC(=O)C12 (stereo not given) -23.4%
COc1cccc(NC(=O)c2ccccc2Br)c1 -19.7%
COc1cc(-c2cc(=O)c3c(O)c(OC)c(OC)c(O)c3o2)ccc1O -24.8%
COc1ccccc1-c1cnn2c(NCc3ccccc3)cc(C)nc12 -13.5%
CC(NC(=O)COc1ccccc1)C(=O)OCC(=O)c1cc2ccccc2o1 (stereo not given) -16.9%
N=C1c2ccccc2CN1NC(=O)CC12CC3CC(CC(C3)C1)C2 -14.9%
O=C(c1ccc(Br)o1)N1CCN=C1SCc1cccc(F)c1 -19.8%
Cc1ccc(S(=O)(=O)N2CCOCC2)cc1NC(=O)CN(C)C1CCS(=O)(=O)C1 (stereo not given) -14.5%
CCN1/C(=C/c2ccc3cc(C)ccc3[n+]2CC)Sc2ccccc21 4.52% [fluorescent]
O=c1ccc2c(-c3ccccc3)c3ccc(O)cc3oc-2c1 -138% [fluorescent]
Cn1cc(/C=C/c2cc[n+](C)cc2)c2cc(F)ccc21 38.9% [fluorescent]
COc1ccc2c(c1)c1nc3ccccc3nc1n2CCn1c(=O)oc2ccccc21 -16.8%
CC(=O)c1ccc2c(c1)c(C#N)c1ccccc1[n+]2[O-] -113% [fluorescent]
O=c1ccc2cc3c4c(c2o1)CCCN4CCC3 -116% [fluorescent]
CCn1c(SCC(=O)Nc2cc(C)on2)nnc1-c1ccc(OC)cc1 -13.6%
CCOc1ccc(/C=C2\N=C(c3cccs3)OC2=O)cc1OC -122% [fluorescent]
CC(C)Sc1nsc2nc(=O)c(/C=C3\C=Nc4ccccc43)c(N)n12 -24.1%
Cc1ccc(-n2c(=O)c(C#N)cc3c(=O)n4ccccc4nc32)cc1C -6.96%
COc1ccc(/C=C2\Oc3cc(OC(=O)N4CCOCC4)ccc3C2=O)c(OC)c1 -94.8% [fluorescent]
CCOc1ccc(S(=O)(=O)Nc2nc3ccccc3nc2-n2ccc(=NC(=O)c3ccccc3C)cc2)cc1 -53% [fluorescent]
O=C(COC(=O)C1CCCC1)Nc1ncc(Cl)cc1Cl -10.9%
COc1ccccc1/C=C/C=C1\Oc2c(ccc(O)c2CN2CCN(CCO)CC2)C1=O 4.54% [fluorescent]
CC(C)CNC(=O)c1ccc(C2SCC(=O)N2Cc2ccccc2)cc1 (stereo not given) -23.6%
C/C(CCc1oc2ccc(Cl)cc2c1-c1ccc(C)o1)=N\O -18.4%
COc1cccc2c1C(=O)c1c(O)c3c(c(O)c1C2=O)C[C@@](O)(C(=O)CO)C[C@@H]3O[C@H]1C[C@H](N)[C@H](O)[C@H](C)O1 -103% [fluorescent]
C/C(=N\NC(=O)CC#N)c1cc2ccc(O)cc2oc1=O -58.7% [fluorescent]
CCN(C(=O)c1cc(Cl)ccc1OC)C1CCCCC1 -15.8%
COc1cc2c(cc1OC)C1=CC(=O)C(=O)N1C(C)(C)C2 -14%

Activity score (negative = inhibition of binding), active:
O=c1oc2c3c4c(cc2s1)CCCN4CCC3 -32.4%
Cc1ccc2ccc(C3C(=O)c4ccccc4C3=O)nc2c1 -40.5%
CCNC(=O)c1cc2c(=O)n3cccc(C)c3nc2n(Cc2ccc(C)cc2)c1=N -78.1%
Nc1c(NCCC2=CCCCC2)c(=O)[nH]c(=O)n1Cc1ccccc1 -49.9%
O=C(O)CCCCCN1C(=O)C(O)=C(C(=O)/C=C/c2ccccc2)C1c1ccccc1[N+](=O)[O-] (stereo not given) -40%
CC1=NN(c2ccc(C(=O)O)c(N)c2)C(=O)C1 -38.6%
Fc1ccc(C2=CC(c3ccco3)n3ncnc3N2)cc1 (stereo not given) -51%
CCOC(=O)C1=C(C)OC(N)=C(C#N)C1c1ccc(O)c(OC)c1 (stereo not given) -39.6%
CC1CCCN(c2nc3ccccc3nc2C(C#N)S(=O)(=O)c2cccs2)C1 (stereo not given) -50.3%
O=C1CSC(=S)N1/N=C/c1ccc(O)c(O)c1O -88.3%
Cc1n[nH]c(=O)nc1N/N=C/c1ccc(O)c([N+](=O)[O-])c1 -27.6%
